Laboratory results from the supplement of paper PMC12217912.
The list shows a part of the results. The full chains were built here from the parent and the listed change. Values near 0.05 are background.

B1: TEV protease; numbered along this chain (parent)
chain: MGESLFKGPRDYNPISSSICHLTNESDGHTTSLYGIGFGPFIITNKHLFRRNNGTLVVQSLHGVFKVKDTTTLQQHLVDGRDMIIIRMPKDFPPFPQKLKFREPQREERICLVTTNFQTKSMSSMVSDTSCTFPSGDGIFWKHWIQTKDGQCGSPLVSTRDGFIVGIHSASNFTNTNNYFTSVPKNFMELLTNQEAQQWVSGWRLNADSVLWGGHKVFMVKPEEPFQPVKEATQL

Variants of: B1
Assay: raw area under fraction-flipped curve 0-4 h after induction (AUC4h, not background-subtracted), DNA-recorder readout of cleavage of the substrate (dimensionless); higher = more cleavage of the substrate by the protease variant
Details: temperature: 34 °C; time window: 0-4 h after rhamnose induction
Method: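 In vivo DNA recorder in E. coli TOP10(DE3) ΔrhaA at 34 °C. Each TEVp single-site mutant (parent TEVp 0) is paired with a single-site variant of the 7-mer TEVs (canonical ENLYFQ|S). The substrate sits between flexible linkers in a Bxb1-sfGFP-TEVs-SsrA fusion, so cleavage stabilises Bxb1 and speeds flipping of a recombination array, read by NGS. The value is the raw area under the fraction-flipped curve over 0-4 h after rhamnose induction (AUC4h), with ≥20 reads per time point. It is not background-subtracted; inactive controls average about 0.047.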
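Also: Bxb1 expression induced with 0.2% (w/v) L-rhamnose at OD600 near 0.5, cultures sampled hourly, flipped fraction per protease–substrate barcode pair counted by paired-end Illumina sequencing.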

| Variant | area with substrate ENLYFQA | area with substrate ENLYFQC | area with substrate ENLYFQD | area with substrate ENLYFQF | area with substrate ENLYFQG | area with substrate ENLYFQH | area with substrate ENLYFQI | area with substrate ENLYFQN | area with substrate ENLYFQR | area with substrate ENLYFQS | area with substrate ENLYFQV | area with substrate ENLYFQW | area with substrate ENLYFQY | area with substrate ENLYFQK | area with substrate ENLYFQL | area with substrate ENLYFQM | area with substrate ENLYFQQ | area with substrate ENLYFQT | area with substrate ENLYFQP | area with substrate ENLYFQE |
| --- | --- | --- | --- | --- | --- | --- | --- | --- | --- | --- | --- | --- | --- | --- | --- | --- | --- | --- | --- | --- |
| MGESLFKGPRDYNPISSSICHLTNESDGHTHSLYGIGFGPFIITNKHLFRRNNGTLVVQSLHGVFKVKDTTTLQQHLVDGRDMIIIRMPKDFPPFPQKLKFREPQREERICLVTTNFQTKSMSSMVSDTSCTFPSGDGIFWKHWIQTKDGQCGSPLVSTRDGFIVGIHSASNFTNTNNYFTSVPKNFMELLTNQEAQQWVSGWRLNADSVLWGGHKVFMVKPEEPFQPVKEATQL [T31H] | 0.0734 | 0.0821 | 0.0758 | 0.0705 | 0.0871 | 0.062 | 0.0412 | 0.0627 | 0.0591 | 0.0915 | 0.0694 | 0.071 | 0.0685 | – | – | – | – | – | – | – |
| MGESLFKGPRDYNPISSSICHLTNESDGHTTSLYGIGFGPFIITNKHLFRRNNGTLVVQSLHGVFTVKDTTTLQQHLVDGRDMIIIRMPKDFPPFPQKLKFREPQREERICLVTTNFQTKSMSSMVSDTSCTFPSGDGIFWKHWIQTKDGQCGSPLVSTRDGFIVGIHSASNFTNTNNYFTSVPKNFMELLTNQEAQQWVSGWRLNADSVLWGGHKVFMVKPEEPFQPVKEATQL [K66T] | 0.0543 | 0.176 | – | – | – | 0.0717 | – | 0.0576 | 0.0574 | 0.108 | – | – | 0.0858 | 0.058 | 0.0665 | 0.0872 | 0.0682 | 0.066 | – | – |
| MGESLFKGPRDYNPISSSICHLTNESDGHTTSLYGIGFGPFIITNKHLFRRNNGTLVVQSLHGVFKVKDTTTLQQHLVDGRDMIIIRMPKDFPPFPQKLKFREPQREERICLVTTNFQTKSMSSMVSDTSCTFPSGDGIFWKHWIQTKDGQCGSPLVSTRDGFIVGIHSASNFTNTNNYFTSVPKNFMELLTNQEAQQWVSGWRLNADSVLWGGHKVFMVKPEEPFQPVKEATDL [Q234D] | 0.113 | 0.146 | 0.0693 | – | 0.105 | – | 0.0535 | 0.0909 | – | 0.114 | 0.0603 | 0.0668 | 0.114 | 0.0766 | 0.0623 | – | – | 0.0673 | 0.0695 | – |
| MGESLFKGPRDYNPISSSICHLTNESDGHTTSLYGIGFGPFIITNKHLFRRNNGTLVVQSLHGVFKVKDTTTLQQHLVDGRDMIIIRMPKDFPPFPQKLKFREPQREERICLVTTNFQTKSMSSMVSDTSCTFPSGDGIFWKHWIQLKDGQCGSPLVSTRDGFIVGIHSASNFTNTNNYFTSVPKNFMELLTNQEAQQWVSGWRLNADSVLWGGHKVFMVKPEEPFQPVKEATQL [T147L] | 0.0948 | 0.0787 | – | 0.0419 | 0.0908 | 0.0683 | 0.0952 | 0.0646 | 0.0555 | 0.0774 | 0.0604 | 0.0743 | – | 0.0559 | 0.0717 | 0.0539 | – | 0.0549 | 0.0492 | – |
| MGESLFKGPRDYNPISSSICHLTNESDGHTTSLYGIGFGPFIITNKHLFRRNNGTLVVQSLHGVFKVKDTTTLQQHLVDGRDMIIIRMPKDFPPFPQKLKFREPQREERICLVTTNFQTKSMSSMVSDTSCTFPSGDGIFWKHWIQTKDGQCGSPLVSTRDGFIVGIHSASNFTNTNNYFTSVPKNFMELLTNKEAQQWVSGWRLNADSVLWGGHKVFMVKPEEPFQPVKEATQL [Q194K] | 0.0862 | – | – | – | 0.0901 | – | 0.0428 | – | 0.0619 | 0.109 | – | 0.066 | 0.0768 | – | 0.0538 | 0.102 | – | 0.0652 | – | – |
| MGESLFKGPRDYNPISSSICHLTNESDGHTTSLYGIGFGPFIITNKHLFRRNNGTLVVQSLHGVFKVKDTTTLQQHLVDGRDMIIIRMPKDFPPFPQKLKFREPQREERICLVTTNFQTKSMSSMVSDTSCTFPSGDGIFWKHWIQTDDGQCGSPLVSTRDGFIVGIHSASNFTNTNNYFTSVPKNFMELLTNQEAQQWVSGWRLNADSVLWGGHKVFMVKPEEPFQPVKEATQL [K148D] | 0.0851 | 0.0602 | 0.0865 | 0.0553 | – | – | 0.0585 | – | 0.0598 | 0.0774 | – | 0.0587 | 0.0668 | 0.0762 | – | 0.0661 | – | 0.0415 | – | – |
| MGESLFKGPRDYNPISSSICHLTNESDGHTTSLYGIGFGPFIITNKHLFRRNNGTLVVQSLHGVFKVKDTTTLQQHLVDGRDMIIIRMPKDFPPFPQKLKFREPQREERICLVTTNFQTKSMSSMVSDTSCTFPSGDGIFWKHWIQTSDGQCGSPLVSTRDGFIVGIHSASNFTNTNNYFTSVPKNFMELLTNQEAQQWVSGWRLNADSVLWGGHKVFMVKPEEPFQPVKEATQL [K148S] | 0.0723 | 0.13 | – | – | – | – | – | 0.0703 | 0.0691 | 0.0921 | 0.0541 | 0.0519 | 0.079 | – | – | 0.0804 | – | 0.0708 | – | – |
| MGESLFKGPRDYNPISSSICHLTNESDGHTTSLYGIGFGPFIITNKHLFRRNNGTLVVQSLHGVFKVKDTTTLQQHLVDGRDMIIIRMPKDFPPFPQKLKFREPQREERICLVTTNFQTKSMSSMVSDTSCTFPSGDGIFWKHWIQTKDGQCGSPLVSTRDGFIVGIHSADNFTNTNNYFTSVPKNFMELLTNQEAQQWVSGWRLNADSVLWGGHKVFMVKPEEPFQPVKEATQL [S171D] | 0.0678 | 0.0757 | – | – | – | 0.0557 | 0.0554 | 0.0456 | 0.0676 | 0.0617 | 0.0287 | 0.062 | – | – | – | 0.0543 | – | 0.0663 | 0.0444 | – |
| MGESLFKGPRDYNPISSSICHLTNESDGHTTSLYGIGFGPFIITNKHLFRRNNGTLVVQSQHGVFKVKDTTTLQQHLVDGRDMIIIRMPKDFPPFPQKLKFREPQREERICLVTTNFQTKSMSSMVSDTSCTFPSGDGIFWKHWIQTKDGQCGSPLVSTRDGFIVGIHSASNFTNTNNYFTSVPKNFMELLTNQEAQQWVSGWRLNADSVLWGGHKVFMVKPEEPFQPVKEATQL [L61Q] | 0.099 | 0.13 | – | – | 0.102 | 0.0775 | 0.0578 | 0.0535 | 0.0565 | 0.111 | – | – | 0.0635 | 0.0585 | 0.0577 | – | – | 0.0619 | 0.0556 | 0.0789 |
| MGESLFKGPRDYNPISSSICHLTNESDGHTTSLYGIGFGPFIITNKHLFRRNNGTLVVQSLHGVFKVKMTTTLQQHLVDGRDMIIIRMPKDFPPFPQKLKFREPQREERICLVTTNFQTKSMSSMVSDTSCTFPSGDGIFWKHWIQTKDGQCGSPLVSTRDGFIVGIHSASNFTNTNNYFTSVPKNFMELLTNQEAQQWVSGWRLNADSVLWGGHKVFMVKPEEPFQPVKEATQL [D69M] | 0.0805 | 0.116 | – | 0.0676 | 0.0779 | – | 0.0531 | 0.0627 | 0.0633 | 0.085 | 0.0492 | 0.0549 | 0.0708 | – | 0.0669 | – | 0.0846 | – | 0.063 | – |
